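Each compound was tested at five concentrations against cells in 96-well plates for 48 hours. GI50 = concentration required for 50% inhibition of growth. TGI: total growth inhibition.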 Where only a bound is given, the exact number is not on record here.

The subject of this test is NCI-H322M lung. The test is described as follows: NCI-60 cell line screen, 48 h.
As for `Cc1ccc(-c2nc([P+](c3ccccc3)(c3ccccc3)c3ccccc3)c(N3CCOCC3)o2)cc1`, the GI50 is 1.65 µM and the TGI amounted to 10.4 µM.

As for `c1ccc(C(NC2=NCCO2)C2CC2)cc1` (stereo not given), the TGI is over 100 µM. The same measure, in the same setting: the value for `CNS(=O)(=O)NNS(=O)(=O)c1ccc(C)cc1` was over 100 µM.

`Nc1ccc2c(=S)c3ccccc3[nH]c2c1` showed a TGI of over 100 µM. The same measure, in the same setting: the value for `COc1ccc(NC(=S)c2ccc([N+](=O)[O-])o2)cc1` was 7.43 µM; that for `Cc1nc2ccccc2n1Cc1nnc(-c2ccccc2)o1` was over 100 µM. The same measure, in the same setting: with `CCOC(=O)C1(C)CCC(C(=O)OC)C1=O` (stereo not given) the figure was over 100 µM. Take `CN1CCN(C(=O)/C=C/c2ccc([N+](=O)[O-])o2)CC1`: the GI50 was 31.7 µM and the TGI was over 100 µM.

For the compound `COc1ccc(-c2c(Nc3ccccn3)nc3c(C4=CCCCC4)c(-c4ccccc4)[nH]n3c2=O)cc1`, the GI50 is 2.9 µM and the TGI is over 100 µM.

For the compound `COC(=O)C1(CCCCl)CCCN1C(=O)OC(C)(C)C` (stereo not given), the TGI is over 100 µM. Same read-out and setting: with `Nc1nccc(NCC2(CO)CC(CCc3ccccc3)C2)n1` (stereo not given) the figure was 55.5 µM. Consider `CN(c1ccccc1)c1c2ccccc2nc2[nH]c3ccccc3c12`, for which the GI50 was 2.82 µM and the TGI was 9.75 µM. The like results for `Nc1cc(C(F)(F)F)c(-c2nc(N3CCOCC3)nc(N3CCOCC3)n2)cn1` were, in that order, 0.27 µM and over 33.2 µM.

`O=c1[nH]c2ccccc2c2oc3ccccc3c12` came in with a TGI of over 100 µM. Still for that read-out and setting: the value for `N#CC1=C(S)N(C2OC(CO)C(O)C(O)C2O)C(c2ccccc2)=CC1c1ccco1` (stereo not given) was over 100 µM.

Regarding `COC(=O)C(C)NP(=O)(OCc1cccc(Cn2cnc3c(N)ncnc32)c1)Oc1ccccc1` (stereo not given), the GI50 was over 100 µM and the TGI was over 100 µM.

`Nc1ccccc1C(=O)/C=C/c1ccccc1O`: the TGI is over 100 µM. `O=S(=O)(Nc1ccccc1)c1ccc(C2CC3(Cl)C(Cl)=C(Cl)C2(Cl)C3(Cl)Cl)cc1` (stereo not given): the GI50 was 4.11 µM and the TGI was 15.3 µM. Consider `O=C1Nc2ccc(Cl)cc2/C1=N/c1nc(-c2ccc(Cl)cc2)cs1`, for which the GI50 is 2.39 µM and the TGI is 8.52 µM. The like results for `CC(=O)O[C@H]([C@H](OC(C)=O)[C@H](C)OC(C)=O)[C@@H](/C=C/[C@H]1CC=CC(=O)O1)OC(C)=O` were, in that order, over 100 µM and over 100 µM. In the case of `CC(=O)NC(CCCNC(=O)OCc1ccccc1)C(=O)NCc1ccccc1` (stereo not given), the TGI is over 100 µM. Same read-out and setting: the value for `CC1C(OS(=O)(=O)c2ccc3[nH]c(=S)sc3c2)CC2C3(C)CCC2(C(C)C(=O)O)C(O)C13` (stereo not given) was over 100 µM; that for `O=C1CSC(c2cc3cc(Br)ccc3nc2Cl)N1c1ccc(Cl)cc1` (stereo not given) was over 100 µM; that for `O=C(O)CCC(NC(=O)c1ccc(Nc2nc3ccc(C(F)(F)F)cc3nc2C(=O)O)cc1)C(=O)O` (stereo not given) was over 100 µM.

As to `Cc1cccc(Oc2ccc(Nc3ncnc4ccc(NC(=O)CN(C)C)cc34)cc2Cl)c1`, the GI50 is 1.29 µM and the TGI worked out at 6.82 µM. `CC(=O)n1c2ccc(Br)cc2c2nc3ccccc3nc21` came in with a TGI of over 100 µM. Turning to `CC(=O)O[C@H]1C[C@@H]2[C@@]3(C)CC[C@H]4C[C@@]4(C)[C@@H]3CC[C@@]2(C)C2=CCC3=C(COC3=O)[C@]21C`, the GI50 was 15.2 µM and the TGI was found to be 35.7 µM. `CNCc1cccc2c1OCCOCCOCCNS(=O)(=O)c1ccc(cc1)-c1cnc(N)c(n1)C(=O)N2`: the GI50 was 1.67 µM and the TGI was found to be 7.17 µM. In the case of `O=C1c2ccccc2C2(O)N(c3ccccc3)C(=S)N(c3ccccc3)C12O` (stereo not given), the TGI is over 100 µM.

In the case of `O=C1c2ccccc2-c2c1c1c(O)cccc1n2Cc1ccccc1`, the GI50 is 6.63 µM and the TGI amounted to 25.3 µM. The compound `O=[N+]([O-])c1ccc(/C=C/c2ccc(/C=C/c3ccc([N+](=O)[O-])cc3[N+](=O)[O-])cc2)c([N+](=O)[O-])c1` returned a TGI of over 100 µM. With `COC1=CC(=O)C(O)=C(CC2(C)C(C)CCC3(C)C2CCCC3(C)C)C1=O` (stereo not given), the TGI is 19.7 µM.

The values above are taken from PubChem BioAssay (NCI).
